In a collection of fitness landscapes (doi:10.1126/science.1257360):
The other results are listed elsewhere or left out.

B1: PhoQ; a variant is named by its letters at X, in order, P23837 (parent)
chain: MKKLLRLFFPLSLRVRFLLATAAVVLVLSLAYGMVALIGYSVSFDKTTFRLLRGESNLFYTLAKWENNKLHVELPENIDKQSPTMTLIYDENGQLLWAQRDVPWLMKMIQPDWLKSNGFHEIEADVNDTSLLLSGDHSIQQQLQEVREDDDDAEMTHSVAVNVYPATSRMPKLTIVVVDTIPVELKSSYMVWSWFIYVLSANLLLVIPLLWVAAWWSLRPIEALAKEVRELEEHNRELLNPATTRELTSLVRNLNRLLKSERERYDKYRTTLTDLTHSLKTPLXXLQXXLRSLRSEKMSVSDAEPVMLEQISRISQQIGYYLHRASMRGGTLLSRELHPVAPLLDNLTSALNKVYQRKGVNISLDISPEISFVGEQNDFVEVMGNVLDNACKYCLEFVEISARQTDEHLYIVVEDDGPGIPLSKREVIFDRGQRVDTLRPGQGVGLAVAREITEQYEGKIVAGESMLGGARMEVIFGRQHSAPKDE

Variants of: B1
Test: enrichment ratio after two sorts for PhoP signalling (ratio (wild type AVST 3.29)); higher = more functional
Conditions: with PhoP (E. coli)

Variant	enrichment ratio
TWFM	≤ 0.25
DYWQ	≤ 0.25
STRK	≤ 0.25
GYNM	≤ 0.25
AIRS	≤ 0.25
DTVW	≤ 0.25
MTAH	3.38
NTGE	≤ 0.25
AHWI	≤ 0.25
WTAP	≤ 0.25
LDID	≤ 0.25
ANII	8.54
YRCL	≤ 0.25
GHDH	≤ 0.25
SVNV	≤ 0.25
MNMS	≤ 0.25
PPLA	≤ 0.25
GKGW	≤ 0.25
YQGP	≤ 0.25
TLVT	≤ 0.25
KNVV	≤ 0.25
QLDK	≤ 0.25
KVHN	≤ 0.25
YDME	≤ 0.25

Variant	enrichment ratio
WTPD	≤ 0.25
AAHH	≤ 0.25
TYGA	≤ 0.25
HSGK	≤ 0.25
MSDF	≤ 0.25
GSAV	3.98
APHG	≤ 0.25
CLAV	≤ 0.25
TNPC	≤ 0.25
DKQQ	≤ 0.25
YLSH	≤ 0.25
CMSL	≤ 0.25
NQAK	≤ 0.25
RVDW	≤ 0.25
NSYF	≤ 0.25
MSIL	9.44
PQMF	≤ 0.25
SHMP	≤ 0.25
EQPM	≤ 0.25
AFGW	≤ 0.25
WYGE	≤ 0.25
WPSA	≤ 0.25
AMTI	11.6
GGSY	≤ 0.25

Variant	enrichment ratio
PSPW	≤ 0.25
YATE	≤ 0.25
PFCL	≤ 0.25
QEQL	≤ 0.25
IDWP	≤ 0.25
HPQI	≤ 0.25
DFTR	≤ 0.25
VQAP	≤ 0.25
YKSY	≤ 0.25
DKHW	≤ 0.25
GCGL	≤ 0.25
SLAD	≤ 0.25
THSG	8.93
YDQN	≤ 0.25
TGFE	≤ 0.25
VVCH	≤ 0.25
DMRR	≤ 0.25
PMHE	≤ 0.25
AEIT	2.48
DMMK	≤ 0.25
ESSR	≤ 0.25
FHTL	≤ 0.25
MVMI	≤ 0.25
PNAT	≤ 0.25

Variant	enrichment ratio
DQTL	≤ 0.25
HPKV	≤ 0.25
FQDH	≤ 0.25
TMQF	16.1
VILR	≤ 0.25
IDWQ	≤ 0.25
MTRE	≤ 0.25
GMWC	≤ 0.25
DNWM	≤ 0.25
MRYM	≤ 0.25
MRKC	≤ 0.25
VKGN	≤ 0.25
QTFT	6.63
YMYH	≤ 0.25
CSCY	≤ 0.25
KDCY	≤ 0.25
VYKN	≤ 0.25
RHCT	≤ 0.25
ADWM	≤ 0.25
HTQI	≤ 0.25
GYLR	≤ 0.25
SWPE	≤ 0.25
WIHW	≤ 0.25
KFTE	≤ 0.25

Variant	enrichment ratio
QSTC	≤ 0.25
EESI	≤ 0.25
NQKW	≤ 0.25
FDCQ	≤ 0.25
GYKA	≤ 0.25
SFGR	≤ 0.25
SRHH	≤ 0.25
SEPN	≤ 0.25
WKPF	≤ 0.25
FPHP	≤ 0.25
EAEA	≤ 0.25
KTQP	≤ 0.25
YYKE	≤ 0.25
TNFL	≤ 0.25
TYWV	≤ 0.25
ICPF	≤ 0.25
GWHS	≤ 0.25
LGMN	≤ 0.25
FFDF	≤ 0.25
WSYA	≤ 0.25
NYQK	≤ 0.25
LHMR	≤ 0.25
FWGY	≤ 0.25
HEYR	≤ 0.25

Variant	enrichment ratio
YSCV	15.6
NAPW	≤ 0.25
DKNV	≤ 0.25
CPVE	≤ 0.25
AMFP	≤ 0.25
DRII	≤ 0.25
FIIF	≤ 0.25
QCQR	≤ 0.25
DSES	≤ 0.25
YENT	≤ 0.25
CTSA	≤ 0.25
LDIM	≤ 0.25
NKIT	≤ 0.25
TLLK	≤ 0.25
EVWE	≤ 0.25
RHIE	≤ 0.25
TSNL	12.5
PNPW	≤ 0.25
WQRA	≤ 0.25
WNTK	≤ 0.25
DPLT	≤ 0.25
ENDH	≤ 0.25
NLWW	≤ 0.25
FQNH	≤ 0.25

Variant	enrichment ratio
HNCM	≤ 0.25
RNMI	≤ 0.25
NAMH	≤ 0.25
HELP	≤ 0.25
KSSL	≤ 0.25
GCIR	≤ 0.25
DSWY	≤ 0.25
PYKM	≤ 0.25
SCIW	≤ 0.25
SPRN	≤ 0.25
ANLK	≤ 0.25
MKRY	≤ 0.25
ETPC	≤ 0.25
KNKY	≤ 0.25
GRNQ	≤ 0.25
GKAD	≤ 0.25
RHNG	≤ 0.25
VCIY	≤ 0.25
HMYR	≤ 0.25
STQF	7.27
TMVT	≤ 0.25
LFLF	≤ 0.25
LMWG	≤ 0.25
RYYW	≤ 0.25

Variant	enrichment ratio
MCVY	≤ 0.25
YMYL	≤ 0.25
LVNT	≤ 0.25
PHVS	0.267
HVPK	≤ 0.25
HFAQ	≤ 0.25
VWVS	0.416
YIWM	≤ 0.25
RMFL	≤ 0.25
KISQ	≤ 0.25
KSHV	≤ 0.25
VIGP	≤ 0.25
GGHY	≤ 0.25
ARDL	≤ 0.25
IKCY	≤ 0.25
KFAC	≤ 0.25
NVAN	≤ 0.25
FNCE	≤ 0.25
TIDI	≤ 0.25
YACT	0.253
HREQ	≤ 0.25
VRCW	≤ 0.25
MCFD	≤ 0.25
YCRH	≤ 0.25

Variant	enrichment ratio
LKFF	≤ 0.25
FLWI	≤ 0.25
EMET	≤ 0.25
FVCN	1.43
HKVG	≤ 0.25
EFSI	≤ 0.25
RGQH	≤ 0.25
FNHW	≤ 0.25
KFCC	≤ 0.25
WHLN	≤ 0.25
DTEV	2.38
MLCP	≤ 0.25
PGYE	≤ 0.25
RMAI	≤ 0.25
SGMM	5
YEAH	≤ 0.25
FPKY	≤ 0.25
MCGF	8.81
LVYN	≤ 0.25
NHRL	≤ 0.25
CFWY	≤ 0.25
MMVH	≤ 0.25
RCTS	≤ 0.25
NVWE	≤ 0.25

Variant	enrichment ratio
WYEP	≤ 0.25
IFDM	≤ 0.25
WMTC	≤ 0.25
QKVR	≤ 0.25
VFHH	≤ 0.25
FYER	≤ 0.25
RGFA	≤ 0.25
KLLC	≤ 0.25
LIHL	≤ 0.25
WAVP	≤ 0.25
QRSE	≤ 0.25
EGHW	≤ 0.25
WAVF	≤ 0.25
KRPK	≤ 0.25
TGGE	≤ 0.25
YTMW	≤ 0.25
KMQV	≤ 0.25
EYHW	≤ 0.25
TPQH	≤ 0.25
RFEC	≤ 0.25
MEHW	≤ 0.25
IQAL	≤ 0.25
WFNG	≤ 0.25
TEQM	17.8

Variant	enrichment ratio
DPYN	≤ 0.25
GTMA	≤ 0.25
GSCD	≤ 0.25
FLVY	≤ 0.25
SSVV	10.3
DVFP	≤ 0.25
CFSS	11.9
LFCS	≤ 0.25
VCIT	≤ 0.25
PSWT	≤ 0.25
HYSG	≤ 0.25
KMHM	≤ 0.25
SVLK	0.56
VQFI	≤ 0.25
IFKH	≤ 0.25
VRCG	≤ 0.25
FMPI	≤ 0.25
YAWL	≤ 0.25
GALK	≤ 0.25
QSGQ	≤ 0.25
SEIV	18.7
SPAV	≤ 0.25
YFDP	≤ 0.25
DVTF	≤ 0.25

Variant	enrichment ratio
HPTQ	≤ 0.25
GKNR	≤ 0.25
NYQY	≤ 0.25
GCNM	≤ 0.25
WDAQ	≤ 0.25
RNTH	≤ 0.25
KSEP	≤ 0.25
LTES	≤ 0.25
YDIP	≤ 0.25
EIRQ	≤ 0.25
HLEL	≤ 0.25
YAVS	≤ 0.25
WVKD	≤ 0.25
VGYR	≤ 0.25
IPCT	≤ 0.25
ARQF	≤ 0.25
KCGN	≤ 0.25
PWTS	≤ 0.25
FKES	≤ 0.25
KTWM	≤ 0.25
ELRG	≤ 0.25
GWQK	≤ 0.25
SQDQ	6.3
LSNY	≤ 0.25

Variant	enrichment ratio
SAEI	≤ 0.25
SGFS	≤ 0.25
DGVA	≤ 0.25
EQEV	≤ 0.25
EEYL	≤ 0.25
EQMC	≤ 0.25
QFDM	≤ 0.25
YHKA	≤ 0.25
KTSE	≤ 0.25
SWNY	≤ 0.25
NAFQ	≤ 0.25
RPAH	≤ 0.25
QFHM	≤ 0.25
HQTA	≤ 0.25
PQRV	≤ 0.25
VEET	≤ 0.25
YFFK	≤ 0.25
PAWR	≤ 0.25
